Laboratory results from PubChem BioAssay AID1476 (National Center for Advancing Translational Sciences (NCATS), 2009).
Hit rate of the full screen: of about 200,000 compounds, about 4,500 (2.2%) were called active. Inconclusive results, whose numbers are uncertain, are shown with a selection of clear calls. Calls follow the shape of the dose curve; as a rule, active = well fitted inhibition curve with a large enough effect; inconclusive = small, poorly fitted or top-dose-only effect, or effect the other way; inactive = flat fitted curve, though single readings scatter. Potencies beside an inconclusive call are fits to weak or partial responses and may not hold up.

Target: Cruzipain (Trypanosoma cruzi) (UniProt P25779)
Assay: qHTS Assay for Promiscuous and Specific Inhibitors of Cruzain (without detergent); also: nearly all actives have a fitted effect of over 40% in size;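 as to max response, negative = inhibition: plate controls were enzyme without inhibitor for no effect and buffer without enzyme for full effect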
Settings: purified cruzain, Z-FR-AMC fluorescence, no detergent
How it was run: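 Purified cruzain at 1.5 nM, pre-incubated 15 min with compound at room temperature in 100 mM sodium acetate pH 5.5, 5 mM DTT, 0.00005% Triton X-100. Reaction started with 2 uM Z-FR-AMC; AMC fluorescence increase over 60 s gives rate.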
Potency is read from the fitted curve at half-maximal effect; tags tell the direction and shape of the fitted curve.

UniProt P25779, sequence (P25779 whole entry, looked up): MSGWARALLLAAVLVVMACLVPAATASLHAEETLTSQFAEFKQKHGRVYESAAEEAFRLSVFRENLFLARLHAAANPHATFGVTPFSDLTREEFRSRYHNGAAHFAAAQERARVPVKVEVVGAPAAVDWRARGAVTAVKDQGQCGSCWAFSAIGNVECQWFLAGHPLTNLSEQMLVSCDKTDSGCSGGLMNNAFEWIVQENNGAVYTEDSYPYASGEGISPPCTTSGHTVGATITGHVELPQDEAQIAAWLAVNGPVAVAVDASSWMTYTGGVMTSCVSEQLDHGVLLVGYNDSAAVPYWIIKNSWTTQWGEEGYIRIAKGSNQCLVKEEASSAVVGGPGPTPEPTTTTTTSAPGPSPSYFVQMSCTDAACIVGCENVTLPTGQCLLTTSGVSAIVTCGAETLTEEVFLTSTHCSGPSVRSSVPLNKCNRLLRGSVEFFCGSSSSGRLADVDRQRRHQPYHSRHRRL

SMILES | Potency | max response, negative = inhibition
CCc1c(C)c2ccc3c(c2oc1=O)CN(Cc1ccccc1)CO3 | inconclusive: 0.199 µM [activator, full curve, poor fit] | –
O=C(Nc1ccc2c(c1)CCC2)C1CCN(c2c3c(nc4ncnn24)CCC3)CC1 | inconclusive: 31.6 µM [activator, single point] | –
O=C(Nc1ccccc1OC(F)F)c1cc2c(s1)CCC2 | inconclusive: 39.8 µM [inhibitor, single point] | –
O=C(Cc1cccc2ccccc12)Nc1nnc(-c2cccc([N+](=O)[O-])c2)s1 | active: 25.1 µM | –
CCOC(=O)C1CCN(C(c2ccccc2)c2c(O)cc(C)n(Cc3ccco3)c2=O)CC1 (stereo not given) | inconclusive: 31.6 µM [inhibitor, single point] | –
O=C(CSc1nnc(CNC(=O)C23CC4CC(CC(C4)C2)C3)n1-c1ccc(F)cc1)Nc1ccccc1 | inconclusive: 39.8 µM [activator, single point] | –
COc1cc(OC)cc(-c2nc3n(n2)C(c2ccccc2F)C(C(=O)Nc2cccnc2)=C(C)N3)c1 (stereo not given) | inconclusive: 31.6 µM [activator, single point] | –
COc1ccc(OC)c(NC(=O)COC(=O)c2ccc(S(=O)(=O)N3CCOCC3)cc2)c1 | inconclusive: 39.8 µM [activator, single point] | –
CCCc1nnc(NC(=O)c2c(O)c3cccc4c3n(c2=O)CCC4)s1 | inconclusive: 20 µM [activator, partial curve] | –
COCCCNc1ncnc2c1[nH]c1ccccc12 | inconclusive: 39.8 µM [activator, single point] | –
O=C(c1ccco1)N(Cc1cccnc1)c1nc2ccc(F)cc2s1 | – | inactive: 0.387%
CCN(CC)S(=O)(=O)c1ccc(NC(=O)[C@H](CSCc2ccccc2)N2Cc3ccccc3C2=O)cc1 | inconclusive: 25.1 µM [inhibitor, single point] | –
Cc1ccc(NC(=O)CSc2nn(-c3ccc(Cl)cc3)c(=S)s2)cc1S(=O)(=O)N(C)C | inconclusive: 31.6 µM [inhibitor, single point] | –
Cc1cccc(C2=NN(c3ccccc3)[C@H](CO)[C@H]2c2ccc(F)cc2)c1 | inconclusive: 22.4 µM [inhibitor, partial curve] | –
O=c1c(-c2ccc(Cl)cc2)nc2cncnc2n1Cc1ccccc1Cl | – | inactive: -12.3%
CCCCC/C=C\C/C=C\CCCCCCCCCC(=O)NC(C)C(=O)O (stereo not given) | – | inactive: 26.5%
COC(=O)c1ccc(C(=O)OC)c(NC(=O)CN2CCN(c3ccccc3OC)CC2)c1 | inconclusive: 39.8 µM [activator, single point] | –
Cc1ccccc1C(=O)N1CCN(c2nc(N3CCOCC3)nc(N3CCOCC3)n2)CC1 | inconclusive: 7.94 µM [activator, single point] | –
CCN(CC)S(=O)(=O)c1cccc(-c2nnc(SCC(=O)NCCC3=CCCCC3)n2N)c1 | inconclusive: 31.6 µM [activator, single point] | –
CC(=O)N1CC2(CC2)CC1c1ccccc1 (stereo not given) | – | inactive: -8.63%
COc1ccc(C(=O)O)cc1Nc1nc2ccc(C)cc2n2cnnc12 | – | inactive: 0.0746%
O=C1Nc2ccc(NS(=O)(=O)c3cccs3)c3cccc1c23 | – | inactive: -4.2%

SMILES | Potency | max response, negative = inhibition
Cc1ccc(S(=O)(=O)Nc2ccc(-c3cn4ccc(C)cc4n3)cc2)cc1 | inconclusive: 39.8 µM [inhibitor, single point] | –
Cc1cc2cc3c(cc2nc1SCC(=O)Nc1nc(C)c(C)s1)OCO3 | active: 31.6 µM | –
CCCCn1c(CN2CCN(c3ccc(F)cc3)CC2)nc2c1c(=O)n(C)c(=O)n2C | inconclusive: 39.8 µM [activator, single point] | –
Cc1nnc(SCc2ccc(F)cc2)n1NC/C=C/c1ccccc1 | inconclusive: 39.8 µM [activator, single point] | –
CCn1c(-c2csc(-c3ccc(Cl)cc3)n2)n[nH]c1=S | inconclusive: 39.8 µM [inhibitor, single point] | –
CCn1c(CCNC(=O)c2ccc(F)cc2)nc2ccccc21 | active: 2.51 µM | –
CCCCNC(=O)C(c1ccc(OCC(=O)OC)c(C(=O)OC)c1)N(CCOC)C(=O)CCCCCN1C(=O)NC(c2ccc(-c3ccccc3)cc2)C(C(=O)OCc2ccccc2)=C1C (stereo not given) | inconclusive: 39.8 µM [activator, single point] | –
Cc1ccc(-c2cc(NC(=O)COc3ccc(Cl)cc3C)on2)cc1 | active: 10 µM | –
CN(C)S(=O)(=O)c1ccc(C(=O)NCc2nnc(SCC(=O)Nc3ccc(F)cc3)n2-c2ccc(F)cc2)cc1 | inconclusive: 39.8 µM [activator, single point] | –
CCOC(=O)C1=C(CN2CCN(c3ccccc3F)CC2)NC(=O)NC1c1ccc(Cl)cc1 (stereo not given) | – | inactive: 3.8%
COC(=O)c1scc(-c2ccc(C)cc2)c1S(=O)(=O)Nc1ccc(N(C)C)cc1 | inconclusive: 7.94 µM [inhibitor, single point] | –
CCN(Cc1ccccc1)c1ccc(/C=N/NC(=O)c2cccc(S(=O)(=O)N3CCOCC3)c2)cc1 | inconclusive: 39.8 µM [inhibitor, single point] | –
COC(=O)N1[C@H](C)C=C[C@]1(Cc1ccccc1)C(=O)NCCCNc1ncc(C(F)(F)F)cc1Cl | inconclusive: 31.6 µM [activator, single point] | –
Cc1cc(C(=O)CSc2nnc(NCc3ccccc3)s2)c(C)n1C | – | inactive: -12.4%
Cc1cc2ccccc2n1-c1ccc(C(=O)N2CCC(C(=O)NCc3ccccc3Cl)CC2)s1 | inconclusive: 31.6 µM [inhibitor, single point] | –
COc1cccc(/C=C/c2onc(C)c2S(=O)(=O)N2CCC(C(=O)N3CCC(C)CC3)CC2)c1 | inconclusive: 31.6 µM [activator, single point] | –
Nc1cc(=O)[nH]c(=O)n1CC1CC1 | inconclusive: 6.31 µM [activator, partial curve, poor fit] | –
O=C(Nc1ncnc2sc3c(c12)CCCCC3)c1ccco1 | inconclusive: 39.8 µM [inhibitor, single point] | –
COc1ccc(C(=O)Nc2ccc(C)cc2C(=O)c2ccccc2)cc1 | – | inactive: -3.05%
CC(C)c1nnc(N2C(=O)c3oc4ccccc4c(=O)c3C2c2ccco2)s1 (stereo not given) | inconclusive: 39.8 µM [activator, single point] | –
Cc1cccc(CNc2ncncc2-c2cccc(C#N)c2)c1 | – | inactive: 3.86%
COC(=O)c1cccnc1-n1c(=O)c2cccnc2n(CC(=O)Nc2c(C)cc(C)cc2C)c1=O | inconclusive: 39.8 µM [activator, single point] | –

SMILES | Potency | max response, negative = inhibition
CCc1nnc(NC(=O)CSc2nc(-c3ccccc3)c(-c3ccccc3)o2)s1 | inconclusive: 39.8 µM [inhibitor, single point] | –
Cc1ccccc1OCc1nc(-c2ccc(NC(=O)c3ccc4c(c3)OCO4)cc2)no1 | active: 12.6 µM | –
O=C(Cn1ncn2nc(-c3cccs3)cc2c1=O)NCc1cccc(Br)c1 | – | inactive: -9.74%
CC(=O)NC1C(=O)SC1(C)C (stereo not given) | – | inactive: 2.6%
COc1ccc(-n2c(=O)c3c(c4cc(OC)ccc4n3C)n(Cc3cc(C)ccc3C)c2=O)cc1 | – | inactive: 0.266%
COc1cccc(CNC(=O)Cc2ccc(-n3c(=O)[nH]c4ccccc4c3=O)cc2)c1 | – | inactive: -6.68%
COc1ccc(S(=O)(=O)N(CC(=O)Nc2cccc(C(F)(F)F)c2)c2ccc(C)cc2)cc1 | – | inactive: -18.9%
O=C(COC(=O)c1n[nH]c2ccccc12)Nc1ccc([N+](=O)[O-])cc1 | active: 10 µM | –
C=C(C)[C@H]1Cc2c(ccc3c2O[C@@H]2COc4cc(OC)c(OC)cc4[C@@H]2C3=O)O1 | inconclusive: 39.8 µM [activator, single point] | –
Cn1c(CC(=O)Nc2ccc(F)cc2)c(Sc2ccccc2)c2ccccc21 | inconclusive: 39.8 µM [inhibitor, single point] | –
Cc1noc(C)c1COc1ccc(C(=O)OCC(=O)N2CC3(C)CC2CC(C)(C)C3)cc1 (stereo not given) | inconclusive: 31.6 µM [activator, single point] | –
CC(=O)Nc1ccc(NC(=O)C(C)OC(=O)CNC(=O)c2sc3ccccc3c2Cl)cc1 (stereo not given) | active: 10 µM | –
CC(=O)c1ccc(Oc2nc(C)nc3c2oc2ccccc23)cc1 | inconclusive: 39.8 µM [activator, single point] | –
CCN(CC)c1ccc2cc(-c3nc(-c4ccc(OC)cc4)cs3)c(=O)oc2c1 | active: 10 µM | –
COc1cc(-c2cccs2)cc(=O)c2c(C)oc(C)c12 | active: 20 µM | –
C=Cn1ccnc1P(=S)(c1ccc2c(c1)c1ccccc1n2CC)c1nccn1C=C | inconclusive: 3.98 µM [activator, full curve] | –
CC1=C(C)CC(C(=O)NNC(=O)c2csc3c2CCC(C(C)(C)C)C3)C(C(=O)O)C1 (stereo not given) | inconclusive: 31.6 µM [activator, single point] | –
Cc1ccc(C)c(NC(=O)CSc2nc(-c3ccccc3)cc(=O)[nH]2)c1 | inconclusive: 1.26 µM [inhibitor, single point] | –
O=C(NC1(C(F)(F)F)NC(=O)N(Cc2cccnc2)C1=O)c1ccccc1 (stereo not given) | – | inactive: -0.961%
NC(N)=Nc1nc(CSCC/C(N)=N\S(N)(=O)=O)cs1 | active: 12.6 µM | –
Cc1noc(C)c1S(=O)(=O)N1CCC(C(=O)Nc2ccc(Br)cc2)CC1 | inconclusive: 25.1 µM [inhibitor, single point] | –
